Results as given in paper PMC3388079.

Biological target: T1, His6-tagged T7 RNA polymerase (bacteriophage T7), P00573
T1 chain: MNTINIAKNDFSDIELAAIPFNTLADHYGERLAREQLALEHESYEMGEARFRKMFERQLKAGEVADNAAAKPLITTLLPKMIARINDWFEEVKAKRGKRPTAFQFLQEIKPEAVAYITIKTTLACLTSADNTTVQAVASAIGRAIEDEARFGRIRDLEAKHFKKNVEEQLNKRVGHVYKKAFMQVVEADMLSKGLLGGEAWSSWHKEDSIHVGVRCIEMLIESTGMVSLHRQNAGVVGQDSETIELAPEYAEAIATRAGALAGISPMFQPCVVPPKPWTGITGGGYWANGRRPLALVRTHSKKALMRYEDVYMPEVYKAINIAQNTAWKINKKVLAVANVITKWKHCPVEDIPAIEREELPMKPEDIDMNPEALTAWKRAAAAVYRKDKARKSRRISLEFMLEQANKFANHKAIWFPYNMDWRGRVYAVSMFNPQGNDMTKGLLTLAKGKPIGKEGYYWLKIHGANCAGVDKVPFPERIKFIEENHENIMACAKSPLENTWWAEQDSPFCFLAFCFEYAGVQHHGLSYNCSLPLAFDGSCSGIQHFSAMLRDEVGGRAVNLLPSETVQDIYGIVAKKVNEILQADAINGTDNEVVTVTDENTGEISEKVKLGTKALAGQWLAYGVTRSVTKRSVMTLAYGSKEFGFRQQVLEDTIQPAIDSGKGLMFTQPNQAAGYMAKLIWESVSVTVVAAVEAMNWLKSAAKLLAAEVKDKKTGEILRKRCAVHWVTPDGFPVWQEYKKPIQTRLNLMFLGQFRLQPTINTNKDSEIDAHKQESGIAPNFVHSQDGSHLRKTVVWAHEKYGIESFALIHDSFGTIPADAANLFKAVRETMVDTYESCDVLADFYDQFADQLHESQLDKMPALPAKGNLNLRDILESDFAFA
Test: fluorescence correlation spectroscopy; 2 nM ECs on Cy3B-labelled 70-bp template with 0.1-0.54 µM unlabelled ECs on 452-bp template (RNAP up to 1.75 µM); buffer LS1, 25°C; diffusion time of the labelled ECs, single-species fit
Conditions: remark: other sources report otherwise

B1: His6-tagged T7 RNA polymerase, P00573 1-883 (enzyme)
chain: MNTINIAKNDFSDIELAAIPFNTLADHYGERLAREQLALEHESYEMGEARFRKMFERQLKAGEVADNAAAKPLITTLLPKMIARINDWFEEVKAKRGKRPTAFQFLQEIKPEAVAYITIKTTLACLTSADNTTVQAVASAIGRAIEDEARFGRIRDLEAKHFKKNVEEQLNKRVGHVYKKAFMQVVEADMLSKGLLGGEAWSSWHKEDSIHVGVRCIEMLIESTGMVSLHRQNAGVVGQDSETIELAPEYAEAIATRAGALAGISPMFQPCVVPPKPWTGITGGGYWANGRRPLALVRTHSKKALMRYEDVYMPEVYKAINIAQNTAWKINKKVLAVANVITKWKHCPVEDIPAIEREELPMKPEDIDMNPEALTAWKRAAAAVYRKDKARKSRRISLEFMLEQANKFANHKAIWFPYNMDWRGRVYAVSMFNPQGNDMTKGLLTLAKGKPIGKEGYYWLKIHGANCAGVDKVPFPERIKFIEENHENIMACAKSPLENTWWAEQDSPFCFLAFCFEYAGVQHHGLSYNCSLPLAFDGSCSGIQHFSAMLRDEVGGRAVNLLPSETVQDIYGIVAKKVNEILQADAINGTDNEVVTVTDENTGEISEKVKLGTKALAGQWLAYGVTRSVTKRSVMTLAYGSKEFGFRQQVLEDTIQPAIDSGKGLMFTQPNQAAGYMAKLIWESVSVTVVAAVEAMNWLKSAAKLLAAEVKDKKTGEILRKRCAVHWVTPDGFPVWQEYKKPIQTRLNLMFLGQFRLQPTINTNKDSEIDAHKQESGIAPNFVHSQDGSHLRKTVVWAHEKYGIESFALIHDSFGTIPADAANLFKAVRETMVDTYESCDVLADFYDQFADQLHESQLDKMPALPAKGNLNLRDILESDFAFA
B1 was tested, and the Kd was > 1 µM.
